The campaign covered roughly 310,000 compounds. About 2,200 (0.71%) showed an effect of 50% or more. Effects have a minus sign here. This is one part of the list.
Target: human ether-à-go-go-related gene (hERG) potassium channel (human, UniProt Q12809)
Test: primary screen, population patch clamp on CHO cells stably expressing hERG

Sequence of human ether-à-go-go-related gene (hERG) potassium channel (Q12809 whole entry, looked up): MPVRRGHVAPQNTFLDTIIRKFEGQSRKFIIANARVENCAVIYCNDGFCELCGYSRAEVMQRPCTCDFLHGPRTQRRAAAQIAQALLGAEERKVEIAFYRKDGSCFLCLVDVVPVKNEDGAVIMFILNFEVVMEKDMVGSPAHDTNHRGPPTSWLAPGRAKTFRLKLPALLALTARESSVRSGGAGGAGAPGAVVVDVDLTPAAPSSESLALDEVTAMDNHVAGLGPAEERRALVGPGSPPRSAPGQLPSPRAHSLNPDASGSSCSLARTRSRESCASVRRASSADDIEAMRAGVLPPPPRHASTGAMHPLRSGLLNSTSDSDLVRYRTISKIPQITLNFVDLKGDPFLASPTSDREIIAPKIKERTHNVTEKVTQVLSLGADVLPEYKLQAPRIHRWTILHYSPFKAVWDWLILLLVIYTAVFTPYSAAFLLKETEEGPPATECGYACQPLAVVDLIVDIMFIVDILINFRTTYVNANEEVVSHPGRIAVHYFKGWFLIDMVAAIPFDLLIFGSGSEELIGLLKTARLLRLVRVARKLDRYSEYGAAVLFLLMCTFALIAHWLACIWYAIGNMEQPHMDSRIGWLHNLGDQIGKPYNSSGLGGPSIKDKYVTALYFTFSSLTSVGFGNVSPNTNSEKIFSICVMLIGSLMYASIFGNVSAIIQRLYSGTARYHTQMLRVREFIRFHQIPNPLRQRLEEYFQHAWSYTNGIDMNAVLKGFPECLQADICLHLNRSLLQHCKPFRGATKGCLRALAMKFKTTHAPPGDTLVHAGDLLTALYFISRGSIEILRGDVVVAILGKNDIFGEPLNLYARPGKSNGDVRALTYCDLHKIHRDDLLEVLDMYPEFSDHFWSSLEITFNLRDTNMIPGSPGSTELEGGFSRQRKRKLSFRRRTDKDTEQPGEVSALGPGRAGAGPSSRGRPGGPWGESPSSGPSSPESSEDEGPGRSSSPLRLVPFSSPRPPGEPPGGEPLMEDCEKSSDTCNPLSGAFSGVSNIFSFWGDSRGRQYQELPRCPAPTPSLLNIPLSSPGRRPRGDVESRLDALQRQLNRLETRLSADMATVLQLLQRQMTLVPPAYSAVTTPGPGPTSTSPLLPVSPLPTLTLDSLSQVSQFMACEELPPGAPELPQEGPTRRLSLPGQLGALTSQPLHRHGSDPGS

Compared with O=C(O)C1C2C=CC(C2)C1C(=O)N1CCN(C/C=C/c2ccccc2)CC1 (stereo not drawn), CC1CC(C)(C)N(C(=O)CN2CCN(C)CC2)c2ccccc21.O=C(O)C(=O)O (stereo not drawn) is lower in “hERG current change (%, negative = inhibition) at 1uM” value: 14.1% for the first, 11.7% for the second.

Going from Cc1ccc(S(=O)(=O)N2CCN(CC(O)CN3CCOCC3)CC2)cc1 (stereo not drawn) to O=C(NC12CC3CC(CC(C3)C1)C2)c1ccc(S(=O)(=O)N2CCOCC2)cc1, the “hERG current change (%, negative = inhibition) at 1uM” value falls from 8.25% to 5.96%.

Compared with Cc1cc2c(SCC(=O)N3CCN(c4ccccc4)CC3)ncnc2s1, Cc1cc([N+](=O)[O-])nn1CC(=O)Nc1c(C)n(C)n(-c2ccccc2)c1=O is higher in “hERG current change (%, negative = inhibition) at 1uM” value: 2.95% for the first, 6.23% for the second.

First: O=C(/C=C/c1ccco1)c1ccccc1O
Second: CCOC(=O)CNC(=O)CN1C(=O)CC(c2ccco2)Sc2ccccc21 (stereo not drawn)
The “hERG current change (%, negative = inhibition) at 1uM” value of the first is higher: 21.3% for the first, -24.1% for the second.

First: Cc1ccc(Nc2nc(N)nc(CN3CCCCCC3)n2)c(C)c1
Second: O=C(CCSc1ccc(Cl)cc1)N1CCCCCC1
The “hERG current change (%, negative = inhibition) at 1uM” value of the first is lower: -21.7% for the first, 3.95% for the second.

Compared with COCCNC(=O)CN1C(=O)NC2(CCCCCC2)C1=O, O=C1CN(CC(=O)NC2CCCc3ccccc32)CCN1 (stereo not drawn) is lower in “hERG current change (%, negative = inhibition) at 1uM” value: 7.55% for the first, 2.49% for the second.

Compared with COc1ccc(C(C)=O)cc1COC(=O)CNC(=O)c1cc(C)cc(C)c1, Cc1cc(C)cc(C(=O)OCC(=O)Nc2cccc(S(=O)(=O)NC3=NCCCCC3)c2)c1 is lower in “hERG current change (%, negative = inhibition) at 1uM” value: 10.2% for the first, 3.04% for the second.

First: Cc1nnc(SCC(=O)N(C)Cc2ccccc2)[nH]c1=O
Second: CCN(CC)CC(=O)c1c(N)n(Cc2ccccc2)c(=O)n(C)c1=O
The “hERG current change (%, negative = inhibition) at 1uM” value of the first is lower: 9.19% for the first, 10.2% for the second.

Going from COCCNC(=O)c1ccc2c(c1)ncn2-c1ccc(C)c(Cl)c1 to CCN(CC)Cc1cc(CCNC(=O)c2ccc(Cl)cc2)ccc1O, the “hERG current change (%, negative = inhibition) at 1uM” value falls from -0.576% to -4.58%.

Going from CC1(C)Cc2c(sc(NC(=O)c3ccc(Br)o3)c2C#N)CO1 to CC(=O)c1ccc(NC(=O)C(C)Sc2nnc(C3CCCCC3)o2)cc1 (stereo not drawn), the “hERG current change (%, negative = inhibition) at 1uM” value falls from 18.8% to 11.5%.

First: Cc1onc(-c2ccccc2)c1C(=O)OCC(=O)Nc1ccc2c(c1)OCO2
Second: CCOc1ccccc1NC(=O)Cc1coc2ccc(C)cc12
The “hERG current change (%, negative = inhibition) at 1uM” value of the first is lower: 14.5% for the first, 19.2% for the second.

Going from COc1ccc(N2C(=O)[C@@H]3[C@H](C2=O)[C@H](C(C)=O)N2c4ccccc4C=C[C@@H]32)cc1 to COc1ccc(C2N(Cc3ccccc3)CC(=O)N2/N=C(\C)c2ccccc2)cc1 (stereo not drawn), the “hERG current change (%, negative = inhibition) at 1uM” value rises from 9.17% to 10.9%.

Compared with COc1ccccc1CN1C2CCCC1CC(NC(=O)/C=C/c1ccccc1)C2 (stereo not drawn), COc1ccccc1/C=C/C(=O)NC1CC2CCC1C2 (stereo not drawn) is higher in “hERG current change (%, negative = inhibition) at 1uM” value: -43.8% for the first, 4.97% for the second.

First: COC(=O)c1cc2occc2n1Cc1ccc(Cl)cc1
Second: Cc1c(C(=O)Nc2ccc(S(N)(=O)=O)cc2)oc2ccc(Cl)cc12
The “hERG current change (%, negative = inhibition) at 1uM” value of the first is lower: 9.16% for the first, 14.8% for the second.

First: O=C(Nc1nnc(C2CC2)s1)C1=NN(C2CCS(=O)(=O)C2)C(=O)CC1 (stereo not drawn)
Second: CC(C)Nc1nnc(SC(C)C(=O)Nc2ccc(N3CCOCC3)cc2)s1 (stereo not drawn)
The “hERG current change (%, negative = inhibition) at 1uM” value of the first is lower: 1.62% for the first, 12.4% for the second.

Compared with CCn1c(C)c(C)c2cc(C(=O)NCCCN3CCCCC3C)ccc21 (stereo not drawn), CCOc1ccc(OCC)c(NC(=O)C2CCCN(S(=O)(=O)c3c(C)noc3C)C2)c1 (stereo not drawn) is higher in “hERG current change (%, negative = inhibition) at 1uM” value: -5.33% for the first, 6.18% for the second.

Going from COc1ccc(N(C)S(=O)(=O)c2cccc(C(=O)NC3CCCCC3C)c2)cc1 (stereo not drawn) to COc1ccc(C(CNS(=O)(=O)c2ccccc2)N2CCN(C)CC2)cc1 (stereo not drawn), the “hERG current change (%, negative = inhibition) at 1uM” value falls from 11.8% to -3.7%.

First: C#CCOC(=O)c1ccccc1C(=O)N(CC)CC
Second: CCCN(CC(=O)Nc1ccccc1OC)C(=O)Cc1ccccc1F
The “hERG current change (%, negative = inhibition) at 1uM” value of the first is higher: 21% for the first, 10.4% for the second.

Going from Cc1cc(C)n(C(=O)COc2ccccc2C)n1 to Cc1cc(C)n2cc(COc3ccccc3)nc2n1, the “hERG current change (%, negative = inhibition) at 1uM” value rises from -0.37% to 8.49%.

Compared with O=C1c2ccccc2C(=O)N1CN(C(=O)c1ccccc1)c1ccc(O)cc1, Cc1ccc2c(c1)C1CN(C)CCC1N2C(=O)c1cn(-c2ccccc2)nc1-c1ccccc1 (stereo not drawn) is lower in “hERG current change (%, negative = inhibition) at 1uM” value: 8.32% for the first, 5.01% for the second.

Compared with COc1ccc(C2C(C#N)=C(N)Oc3cc(N)ccc32)cc1 (stereo not drawn), COc1ccc(C2C(C(=O)Nc3cccc(C)n3)c3ccccc3C(=O)N2C)cc1OC (stereo not drawn) is lower in “hERG current change (%, negative = inhibition) at 1uM” value: 11% for the first, 0.676% for the second.

Going from C/C=C/c1cc(CN2CCN(c3ccc(OC)cc3)CC2)c(O)c(OC)c1 to CN1CCN(Cc2ccc(N)cc2)CC1, the “hERG current change (%, negative = inhibition) at 1uM” value rises from -8.96% to 3.71%.

Compared with O=C(Nc1ccc(Cc2ccncc2)cc1)c1cc([N+](=O)[O-])ccc1N1CCOCC1, O=C(Nc1cccc(C(F)(F)F)c1)c1cc(S(=O)(=O)N2CCCCC2)ccc1N1CCOCC1 is higher in “hERG current change (%, negative = inhibition) at 1uM” value: -6.03% for the first, 0.0815% for the second.

Going from O=C(Oc1cccc(Cl)c1)N1CCOCC1 to O=C(C(=O)N1CCCC1)c1c[nH]c2ccccc12, the “hERG current change (%, negative = inhibition) at 1uM” value rises from 8.48% to 13.5%.

First: CCOC(=O)Cn1cc(Cl)c(=O)c(Cl)c1
Second: CC1=C(C)C(OCCCl)N(c2cc(O)c(Cl)cc2F)C1=O (stereo not drawn)
The “hERG current change (%, negative = inhibition) at 1uM” value of the first is lower: 0.0686% for the first, 11.2% for the second.

Compared with C=CCOc1ccc(/C=C/C(=O)OCC(=O)N(C)C2CCS(=O)(=O)C2)cc1 (stereo not drawn), CCOc1ccc(C(=O)CCC(=O)N(CC)CC(=O)NCc2cccs2)cc1 is higher in “hERG current change (%, negative = inhibition) at 1uM” value: -4.87% for the first, -0.995% for the second.

Compared with COc1ccccc1NC(=O)CN1CCN(CC(=O)Nc2ccc(F)cc2)CC1, COc1ccc(Cl)cc1NC(=O)CSc1nnc(Cc2cccn2C)n1-c1ccc(F)cc1 is higher in “hERG current change (%, negative = inhibition) at 1uM” value: -87.4% for the first, 2.71% for the second.

First: COc1ccc([N+](=O)[O-])cc1NC(=O)CSc1nc(C)c(C)c(C)n1
Second: Cc1nc(NC(=O)CSc2nc3ccccc3s2)sc1C(=O)N(C)C
The “hERG current change (%, negative = inhibition) at 1uM” value of the first is lower: 6.75% for the first, 9.25% for the second.

Going from CN(C)c1cccc(-c2nnc(SCCCC#N)o2)c1 to N#CCc1nc(CSc2nc3ccccc3o2)cs1, the “hERG current change (%, negative = inhibition) at 1uM” value rises from 0.892% to 11.5%.

First: O=C(NC1CCCC1)c1ccc2c(c1)N(Cc1ccc(F)cc1)CCS2
Second: CC(=O)c1ccc(C(=O)N2CCCC(CNC(=O)c3ccccc3Cl)C2)cc1 (stereo not drawn)
The “hERG current change (%, negative = inhibition) at 1uM” value of the first is higher: 9.23% for the first, 4.16% for the second.

Compared with COC(=O)C(C)SC1=N/C(=C/c2ccc(-n3cncn3)cc2)C(=O)N1 (stereo not drawn), COc1ccc(NC(=O)/C=C2\SC(=O)NC2=O)cc1 is higher in “hERG current change (%, negative = inhibition) at 1uM” value: 6.88% for the first, 8.47% for the second.

Compared with CC(=O)c1ccc(NC(=S)Nc2cccc(Cl)c2C)cc1, COCC(C)n1c(C)cc(C(=O)CSc2ccc(NC(C)=O)cc2)c1C (stereo not drawn) is lower in “hERG current change (%, negative = inhibition) at 1uM” value: 12.3% for the first, 1.1% for the second.

Compared with O=C1C2CCN(CC2)[C@@H]1Cc1ccc2ccccc2c1O, O=C(NCCCN1CCOCC1)c1cc2c([nH]c3ccccc32)c(-c2cccc(Br)c2)n1 is higher in “hERG current change (%, negative = inhibition) at 1uM” value: -2.93% for the first, 10.2% for the second.

Compared with CC(Oc1ccccc1)c1ccnn1S(C)(=O)=O (stereo not drawn), CC(C)c1nc(-c2ccc([N+](=O)[O-])cc2)cs1 is lower in “hERG current change (%, negative = inhibition) at 1uM” value: 13.5% for the first, 9.64% for the second.

Going from CCCCC(CC)CNC(=O)CCCCn1c(=O)[nH]c2ccsc2c1=O (stereo not drawn) to COc1cccc(Cn2c(NCC(C)C)nc3c2c(=O)n(C)c(=O)n3C)c1, the “hERG current change (%, negative = inhibition) at 1uM” value falls from 7.97% to -7.04%.

First: O=C(CSc1cccc[n+]1[O-])N1CCCCCC1
Second: C[n+]1ccccc1C1CCCC/C1=N\Nc1ccc([N+](=O)[O-])cc1[N+](=O)[O-].[I-] (stereo not drawn)
The “hERG current change (%, negative = inhibition) at 1uM” value of the first is higher: 11.7% for the first, 4.39% for the second.

Going from COc1ccc(/C=C2\OC(=O)c3c(OC)cccc32)cc1OC to COc1ccc(/C=N/NC(=O)c2ccn[nH]2)cc1COc1ccc(F)cc1, the “hERG current change (%, negative = inhibition) at 1uM” value rises from 13.1% to 17.4%.

Going from CCCCc1ccc(-c2ccc(Br)cc2O)nc1 to COc1ccc(-c2nc[nH]c2[N+](=O)[O-])cc1, the “hERG current change (%, negative = inhibition) at 1uM” value rises from 5.41% to 13.4%.

First: CCOC(=O)NC(Nc1nc2ccccc2s1)(C(=O)OCC)C(F)(F)F (stereo not drawn)
Second: CCO[C@H]1OC(C(=O)NC2CC2)=C[C@@H](c2csc3ccccc23)[C@@H]1CCCO
The “hERG current change (%, negative = inhibition) at 1uM” value of the first is higher: 5.8% for the first, -1.5% for the second.

Compared with CN(C)/N=C/c1cc(Cl)cc([N+](=O)[O-])c1O, CCN(c1cccc(C)c1)S(=O)(=O)c1ccc2c3c(cccc13)C(=O)N2 is lower in “hERG current change (%, negative = inhibition) at 1uM” value: 12.9% for the first, 11.4% for the second.

Going from CC1CCc2c(sc3ncn(N)c(=N)c23)C1 (stereo not drawn) to COC(=O)C1=C(c2cccc(C#N)c2)C[C@@H]2CC[C@H]1N2C(=O)NC(C)C, the “hERG current change (%, negative = inhibition) at 1uM” value rises from 13.6% to 18.6%.

First: COCCNC(=S)N/N=C(\C)c1cccc(OC)c1
Second: CCNC(=O)c1nc[nH]c1C(=O)NCC
The “hERG current change (%, negative = inhibition) at 1uM” value of the first is lower: 2.94% for the first, 6.65% for the second.

Compared with CC(C)c1ccc(NS(=O)(=O)c2cn(C)c(=O)n(C)c2=O)cc1, CC(C)Cn1c(N)c(C(=O)CSc2nnc(-c3ccco3)n2C)c(=O)n(C)c1=O is higher in “hERG current change (%, negative = inhibition) at 1uM” value: 9.27% for the first, 10.7% for the second.

Compared with O=C(CSc1nnc(-c2cccnc2)n1Cc1ccco1)c1ccc(Cl)cc1, NS(=O)(=O)c1ccc(NC(=O)CSc2nc(Nc3ccccc3)nc(N3CCOCC3)n2)cc1 is higher in “hERG current change (%, negative = inhibition) at 1uM” value: -21.1% for the first, 24.9% for the second.

First: O=C(c1ccco1)N1CCN(C(c2coc3ccc(Cl)cc3c2=O)c2nnnn2C2CCCC2)CC1 (stereo not drawn)
Second: O=S1(=O)N=C(N/N=C/c2ccc(Br)o2)c2ccccc21
The “hERG current change (%, negative = inhibition) at 1uM” value of the first is lower: -5.06% for the first, 8.15% for the second.

From PMC4336329 (PLoS ONE, 2015)
